Out of some 48,000 compounds screened, about 450 (0.94%) were called active. Roughly 19% stayed inconclusive and do not appear here. Calls come from the whole dose curve; as a rule, active = well fitted inhibition curve with a large enough effect; inconclusive = small, poorly fitted or top-dose-only effect; inactive = no such curve, though single readings can be large or run the other way. The list shows a part of the results.
Assay: Primary qHTS for Identification of Small Molecule Inhibitors of Huntingtin Promoter Activity; note: nearly all actives have a fitted effect of over 50% in size
Settings: HEK293 HTT promoter firefly luciferase reporter (activity 0% = vehicle and -100% = no light), 24 h; series mostly up to 57.5 µM; activity change, negative = inhibition: at the top concentration
Procedure, shortened: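 HEK293 luciferase promoter-reporter cells (2,500/well) plated 24 h, then compounds added at up to 57.5 uM final for 24 h at 37 °C. Firefly luminescence by Dual-Glo, normalized to vehicle (0%) and zero RLU (-100%).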

Activity change, negative = inhibition, inactive:
COc1cc(OC)c(NC(=O)Nc2ccc3c(c2)N(C)C(=O)c2ccccc2S3)cc1Cl -27.6%, Cc1ccc(-c2onc(C)c2C)cc1S(=O)(=O)N1CCN(c2ccccc2F)CC1 -5.35%, COc1cc(OC)cc(-n2c(=O)c3sccc3n(Cc3ccc(F)cc3)c2=O)c1 -4.5%, COc1cccc(NC(=O)CCNC(=O)Cn2cnc3ccccc3c2=O)c1 50% [at 11.5 µM], CCn1c2ccccc2c2cc(CN3CCN(Cc4cccc(Cl)c4)CC3)ccc21 -22.5%, COc1cc(C(CC(=O)NCc2ccccc2Cl)N2Cc3ccccc3C2=O)cc(OC)c1OC (centres undefined) -20.6%, CCOc1ccccc1CNC(=O)c1ccc(-n2c(C)cc3c2CCC(C)C3)cc1 (centres undefined) 14.3%, COC(=O)c1ccccc1NC(=O)CCCn1nc(C)c2c(C)n(-c3ccccc3)nc2c1=O 5.01%, Cc1ccc(C(=O)O)cc1NC(=O)c1nsc2ccccc12 3.71%, COc1ccc(CCNC(=O)CN2C(=O)COc3ccc(S(=O)(=O)N4CCCC4)cc32)cc1OC -15.5%, Cc1ccc(Cl)cc1N1CCN(c2nc3ccccc3c3nc(-c4cccnc4)nn23)CC1 -10%, Cc1ccc(CNC(=O)c2cc(-c3ccc(C)c(C)c3)nc3ccccc23)cc1 -9.09%, COC(=O)c1sc(N2C(=O)c3oc4ccc(C)cc4c(=O)c3C2c2ccc(OC)cc2)nc1C (centres undefined) -10.1%, Cc1cc(Cl)ccc1NC(=O)CSc1nc2c(c(=O)[nH]1)CCC2 -12.4%, Cc1ccc(NC(=O)C(=O)NCC(c2cccnc2)N2CCN(Cc3ccccc3)CC2)cc1Cl (centres undefined) -17.9%, CC1CCN(C(c2ccccc2)c2sc3nc(-c4ccco4)nn3c2O)CC1 (centres undefined) -20%, O=C(CSc1nc(-c2ccccc2)cn1-c1ccccc1F)Nc1ccc(F)cc1 -24.7%, Cc1ccc(Nc2cc(C(=O)NCCc3ccccc3)c3ccccc3n2)c(C)c1 0.267%, COc1cc(NC(=O)CN2CCN(S(=O)(=O)c3ccc(Br)cc3)CC2)cc(OC)c1 -10.9%, COc1ccc(NC(=O)CSc2nc(-c3cc(OC)c(OC)c(OC)c3)[nH]c2-c2ccc(F)cc2)cc1 -23.9%, O=C(Cn1nc(-c2ccc(Cl)cc2)c2ccccc2c1=O)Nc1cccc(Br)c1 0%, Cc1ccccc1Cn1c(COc2ccc(Cl)cc2)nc2ccccc21 -15.5%, COc1ccc(CNC(=O)C2CCN(c3nnc(-n4c(C)ccc4C)s3)CC2)c(OC)c1 -14%, O=C(Nc1cccc(F)c1)C1CCCN(S(=O)(=O)c2cccc3cccnc23)C1 (centres undefined) -18.3%, CC1CCN(S(=O)(=O)c2ccc3c(c2)c(=O)c(C(=O)N2CCN(c4cccc(Cl)c4)CC2)cn3C)CC1 -4.5%, O=c1c2cc3c(cc2nc2sc(Nc4ccccc4)nn12)OCO3 39.6%, CCOC(=O)c1c(C)oc2nc(C)nc(NCCc3ccc(OCC)c(OCC)c3)c12 -17.6%, COC(=O)c1ccc(NC(=O)CSc2cn(CC(=O)N3CCCCC3)c3ccccc23)cc1 -18.5%, COc1ccc(N2CCN(c3ncnc4c3cnn4-c3ccc(F)cc3)CC2)cc1 -3.49%, CCCN(C(=O)c1cn(C)c(=O)c2cc(OC)c(OC)cc12)c1ccc(CC)cc1 -24.6%, COc1ccc(NC(=O)C2=CC(c3ccco3)=NS(=O)(=O)N2C)cc1OC -10.1%, CCc1ccccc1NC(=O)CCCSc1nc(-c2ccco2)cc(C(F)(F)F)n1 -4.49%, CCN(c1ccccc1)S(=O)(=O)c1nnc(NC(=O)c2ccccc2OC)s1 -13.3%, COc1cc(C)c(Cc2cnc(N)nc2N)cc1OC 0.49%, CCOCCc1nn2c(=O)cc(COC(=O)c3ccc(NC(=O)C4CCCCC4)cc3)nc2s1 -11.4%, Cc1nn(-c2ccccc2)c(OC(=O)c2ccccc2Br)c1S(=O)(=O)c1ccccc1 -8.84%, O=C(CS(=O)(=O)c1cccc2nsnc12)N1CCN(c2ccccc2F)CC1 8.28%, O=C(Nc1ccc(Cl)cc1)C1CCC(CNS(=O)(=O)c2ccc(Br)s2)CC1 (centres undefined) -12.4%, Cc1cc(NC(=O)c2ccc3c(c2)N(Cc2cccc(Cl)c2)C(=O)c2ccccc2S3(=O)=O)ccc1Br -23.7%, CCCCN(C)CCCNC(=O)C1CCN(S(=O)(=O)CCC)CC1 13.9%, CCN(CC)c1ccc(CNCCCSc2nnnn2C)cc1 -15.4%, COc1ccc(CNC(=O)c2cc(Nc3ccccc3C)nc3ccccc23)cc1 -1.26%, Cc1oc(-c2cccc(Cl)c2)nc1CN1CCC(C(=O)NC(C)c2ccccc2)CC1 (centres undefined) -4.8%, CCOc1ccc(CN2C(=O)c3ccccc3Sc3ccc(C(=O)NCc4ccco4)cc32)cc1 -28.7%, CCc1ccc(NC(=O)CC2C(=O)NCCN2C(=O)c2ccc(F)cc2)cc1 (centres undefined) -6.57%, CCc1ccc(NC(=O)NCCc2c(C)nn(C)c2C)cc1 33%, CCCC(CCC)(C(=O)OCC)C(=O)OCC 3.94%, CCOc1ccccc1CNC(=O)c1ccc(CS(=O)Cc2cccc(Cl)c2)o1 (centres undefined) -16.2%, Cc1cccc(NC(=O)CSc2nnc(NC(=O)Nc3ccccc3)s2)c1C -8.79%, CSc1ccc(C2C(C(=O)Nc3ccccc3)=C(C)Nc3nc4ccccc4n32)cc1 (centres undefined) -3.46%, CSc1ccc(CNC(=O)Cn2nc(N3CCN(c4ccccc4)CC3)ccc2=O)cc1 -0.912%, Cc1ccccc1CNC(=O)C(=O)NCC(c1ccco1)S(=O)(=O)c1cccs1 (centres undefined) -27.3%, COc1cccc(NC(=O)CSc2nnc(-c3cccc(OC)c3)o2)c1 60.4%, NC[C@H]1O[C@H](O[C@H]2[C@H](O)[C@@H](O[C@H]3O[C@H](CO)[C@@H](O)[C@H](N)[C@H]3O)[C@H](N)C[C@@H]2N)[C@H](N)[C@@H](O)[C@@H]1O 0.955% [at 25.2 µM], CCc1ccc(-n2c(=O)c3sc4ccccc4c3n(CC(=O)N(CC)Cc3ccccc3)c2=O)cc1 -10.8%, CCNC(=O)NCc1cccc(Cl)c1 7.32%, O=C(Nc1ccc2nc(SCC(=O)N3CCc4ccccc43)sc2c1)c1ccccc1 -14.6%, Cc1ccc2sc(-c3ccc(N)cc3)nc2c1 11.9%, CCOC(=O)c1c(C)[nH]c(C)c1S(=O)(=O)N1CCCC(C(=O)Nc2cc(C)ccc2C)C1 (centres undefined) -7.94%, CCCCNC(=O)CSc1nc2nc(C)c(Cc3c(F)cccc3Cl)c(C)n2n1 -17.2%, CC(=O)c1ccc(NC(=O)COc2ccccc2-c2nc(-c3ccc(C)cc3)no2)cc1 34.2%, O=C(NC1CC(=O)N(c2cccc(F)c2)C1)c1ccc2c(c1)OCO2 (centres undefined) 0.992%, O=C(C1CCC(Cn2c(=O)c3sccc3n(Cc3ccccc3)c2=O)CC1)N1CCOCC1 (centres undefined) -21.7%, Cc1ccc(-c2nnc(Nc3ccccc3O)c3ccccc23)cc1 -26.1%, O=C(Nc1cc2c(cc1C(=O)c1ccccc1Br)OCCO2)c1ccccc1 -2.04%, CC(=O)O[C@]1(C(C)=O)CC[C@H]2[C@@H]3C=C(C)C4=CC(=O)CC[C@]4(C)[C@H]3CC[C@@]21C 5.94%, CCc1cc(C(=O)Nc2c(C)nn(Cc3ccccc3Cl)c2C)no1 -8.1% [at 11.5 µM], Cc1cc(C)c(NC(=O)CN2C(=O)c3cccnc3Sc3ccccc32)c(C)c1 4.69%, O=C(CCC(=O)N1CC2CCCN2c2ccccc21)NCc1ccc(F)cc1 (centres undefined) -6.59%, COc1ccc(C(=O)NCC(c2ccc3c(c2)OCO3)N2CCN(C)CC2)cc1 (centres undefined) -15.5%, CCOc1ccc(CCNC(=O)c2nnc(Cc3ccc(Cl)cc3Cl)o2)cc1OCC -17.2%, COc1cc(OC)c(N(C)C(=O)c2c(C)oc3ncnc(N4CCCCC4)c23)cc1Cl -30.2%, CCOC(=O)c1cc2c(=O)n3ccccc3nc2n(CC2CCCO2)c1=NC(=O)c1ccccc1C (centres undefined) -13.9%, CCn1cc(/C=C(\NC(=O)c2ccc(C)cc2)C(=O)NCCCn2ccnc2)c2ccccc21 -0.996%, CCOc1ccc2nc(N3CCN(C(=O)c4ccco4)CC3)sc2c1 0.0772%, COc1ccc(CNC(=O)C2CCCN(S(=O)(=O)c3ccc4c(ccn4C)c3)C2)c(OC)c1 (centres undefined) 0%, COc1ccc(NC(C)=O)cc1NC(=O)C1(c2cccs2)CCOCC1 -15.4%, CCc1ccc(-n2nc(CO)c(C(=O)NCCc3ccccc3)n2)cc1 1.01%, O=C(CSc1nc2c([nH]c3ccccc32)c(=O)n1-c1ccc(F)cc1)N1CCc2ccccc21 -11.6%, Cc1cc(C)cc(-n2c(SCC(=O)N3CCC(C)CC3)nc3c([nH]c4ccccc43)c2=O)c1 -8.25%, Cc1ccc(C)c(N2CCN(C(=O)Cc3c(C(=O)O)c(C)cn3C)CC2)c1 -8.57%, COc1cccc(C(=O)N2CCCCC2CCN2CCCCC2)c1 (centres undefined) -7.42%, NC(=O)c1cnc(-c2ccc(C3(N)CCC3)cc2)c(-c2ccccc2)c1 -12.6%, Cc1oc(-c2ccccc2F)nc1CS(=O)CC(=O)NC(C)C (centres undefined) 3.47%, CC/C=C(\C(=O)N[C@@H]1C(=O)N2C(C(=O)OCOC(=O)C(C)(C)C)=C(COC(N)=O)CS[C@H]12)c1csc(N)n1, COc1ccc(OC)c(NC(=O)c2cccc3c2C(=O)N(C2CCCCC2)C3)c1 -19.4%, Cc1cccc(Cn2c(CNS(=O)(=O)c3ccc(C(C)C)cc3)nc3cccnc32)c1 -23.4%, C[C@@H]1O[C@@H](OC[C@H]2O[C@@H](Oc3c(-c4ccc(O)c(O)c4)oc4cc(O)cc(O)c4c3=O)[C@H](O)[C@@H](O)[C@@H]2O)[C@H](O)[C@H](O)[C@H]1O 13%, COc1cc(NC(=O)CN2CCCN(S(=O)(=O)c3ccc(F)cc3)CC2)cc(OC)c1 -23.3%, CCOC(=O)c1cc(S(=O)(=O)Nc2c(C)cc(C)cc2C)[nH]n1 -11.6%, Cc1ccc2nc(-c3ccc(NC(=O)COc4ccccc4C(C)(C)C)cc3)sc2c1 38.8%, CC(=O)NC(C)c1nc2ccccc2n1Cc1ccccc1Cl (centres undefined) 6.57%, Cc1ccc(C)c(NC(=O)C2CCCN2S(=O)(=O)c2ccc3c(c2)n(C)c(=O)c(=O)n3C)c1 (centres undefined) 7.07%, CCOC(=O)CCCCN(Cc1ccccc1F)S(=O)(=O)c1ccc(F)c(C(=O)Nc2cc(Cl)cc(Cl)c2)c1 -37.7%
